Measurements reported in the RNAGym collection of RNA variant scans (doi:10.1093/nar/gkz1192).
The source gives no read counts; variants with many changes may rest on few reads.

B1: CPEB3 Ribozyme (parent)
chain: UAACAGGGGGCCACAGCAGAAGCGUUCACGUCGCAGCCCCUGUCAGAUUCUGGUGAAUCUGCGAAUUCUGCUGUAUAUCUC

Variants of: B1
Assay: self-cleavage, relative activity (ratio to wild type); higher = more cleavage; in vitro, sequencing
Outline: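 Relative activity was defined as the cleaved/total read fraction for a variant divided by the same fraction for the unmutated ribozyme. CPEB3 self-cleaving ribozyme libraries were made by rounds of error-prone PCR, barcoded, and transcribed in vitro with T7 RNA polymerase for 5 hours at 37°C, and cleavage ran through transcription plus a 15 min DNase I step before EDTA. Illumina sequencing of template-switched reverse transcripts gave the reads, and DNA sequencing mapped the barcodes. Averages come from three batches, using variants with at least 5 reads.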

| Variant | self-cleavage |
| --- | --- |
| A20U U31C U72A | 0.14 |
| A20U G30U U43A A45G A47G U51C U67A | 0.05 |
| A20U C34A U80A | 0.04 |
| A20U U25G A35U U72C | 0.17 |
| A20U C23U A64G U66C U69A | 0.1 |
| A20U U48C U49A U51A U72G | 0.47 |
| A20U C40U U72A | 0.11 |
| A20U G36C U67C | 0.06 |
| A20U G36U U41C G52A | 0.12 |
| A20U G52C U60C | 0.11 |
| A20U U49C A65G U69C | 0.11 |
| A20U U25C A28G | 0.2 |
| A20U U43C A57C | 0.06 |
| A20U U25C U41C U49A U72A A75C | 0.06 |
| A20U U41A U78A C81U | 0.26 |
| A20U U26G G63A C68A U78C | 0.02 |
| A20U G30U G33U | 0.08 |
| A20U U26C U48C U54C | 0.59 |
| A20U G73A A75U | 0.41 |
| A20U U43C U69C | 0.16 |
| A20U U43C G63U | 0.33 |
| A20U C38A U43A A45G A64G | 0.1 |
| A20U U41C G63A A64G A75G | 0.13 |
| A20U A64G U80C | 0.21 |

| Variant | self-cleavage |
| --- | --- |
| A20U C32U A56G | 0.36 |
| A20U U48C A57G U67C | 0.1 |
| A20U U43C U51A U72C A77G | 0.26 |
| A20U U60C C68U U76C | 0.12 |
| A20U U26A A45G U54C C62U U78C | 0.1 |
| A20U C23U U49C A56G A57G | 0.13 |
| A20U C32A A56U | 0.19 |
| A20U U31G C32A U51A | 0.18 |
| A20U C32U U69A | 0.1 |
| A20U A47G A65G | 0.29 |
| A20U U25C A64G U72C A77U C79A | 0.08 |
| A20U U43A U49A | 0.21 |
| A20U U25C A28G A56G U72C | 0.22 |
| A20U G42U U43C | 0.24 |
| A20U A45U U51A A56U U69A U76A U78A | 0.14 |
| A20U U26C A35G U43G A45G C62U | 0.06 |
| A20U U48C A57G U58A U67C | 0.14 |
| A20U C37G U43A A56U | 0.08 |
| A20U U31C A47G U48C | 0.1 |
| A20U U60A A64G | 0.13 |
| A20U U26C U31A | 0.14 |
| A20U U26A U48C U51A | 0.22 |
| A20U C40U G53A U54C | 0.13 |
| A20U A56G U58C | 0.37 |

| Variant | self-cleavage |
| --- | --- |
| A20U U31C U41C A64G U72C U80A | 0.09 |
| A20U C23U U26C A35G C37U U43C | 0.09 |
| A20U U26A A57U U60C C62G A65G | 0.05 |
| A20U A56U U78C | 0.27 |
| A20U U43A U74C A75U | 0.53 |
| A20U C40U U76C | 0.25 |
| A20U U25A A35G C50U U58A U80C | 0.05 |
| A20U U41C G52C | 0.3 |
| A20U U26C A65G | 0.34 |
| A20U A57G U80C | 0.45 |
| A20U U43A U78C | 0.22 |
| A20U U54C C71U U72C | 0.14 |
| A20U U31C A35U U41A | 0.15 |
| A20U A56G U74C A75U | 0.37 |
| A20U U43A G63U | 0.38 |
| A20U U25C U31C A35U U41C A75G U78A | 0.14 |
| A20U U25C A35U U60C A75U | 0.05 |
| A20U U41A A57G | 0.44 |
| A20U U26C U31C U51A U80A | 0.27 |
| A20U U48C U51A U60A | 0.08 |
| A20U U31A U41A A45U U51A A65G A77C | 0.05 |
| A20U G24C U25C U31C U48C A56U U66C | 0.11 |
| A20U G22A U41A | 0.13 |
| A20U U49C C71A | 0.12 |

| Variant | self-cleavage |
| --- | --- |
| A20U C29A U43G | 0.44 |
| A20U G22U A45U | 0.31 |
| A20U A64U U66C | 0.23 |
| A20U U26G U51A U60C U69A G73A | 0.13 |
| A20U U54C A56U U67C | 0.09 |
| A20U U51A U76C U80C | 0.26 |
| A20U U54C U58A A65G U76A | 0.03 |
| A20U U43C U69A U72C | 0.16 |
| A20U G30A U67A U69C | 0.1 |
| A20U G30U U60C U74A A75G | 0.06 |
| A20U U25C C39A G63U | 0.18 |
| A20U G53C A64U U67C U69A | 0.12 |
| A20U C40U A64G U72A | 0.16 |
| A20U U60A A77U | 0.15 |
| A20U A47G U72C U76C A77G | 0.15 |
| A20U U48A A56C C62U U69C | 0.09 |
| A20U U25C A47G A56U | 0.14 |
| A20U C34G C68G | 0.1 |
| A20U U31A C50A | 0.18 |
| A20U C34U U67C | 0.14 |
| A20U G52U U80C | 0.45 |
| A20U U54A U60A G63U | 0.25 |
| A20U U49C U67C | 0.14 |
| A20U G22U U48C U78C U80A | 0.18 |

| Variant | self-cleavage |
| --- | --- |
| A20U G24A U31G C40A A57G A64U U76C | 0.07 |
| A20U U25C A28U U51A G63U | 0.12 |
| A20U U43A U49C A65G | 0.06 |
| A20U C29U C38U | 0.14 |
| A20U U26C C29G A65G | 0.1 |
| A20U G24A A35U C37A U43C U60C A77G | 0.07 |
| A20U C32U A35G C44U | 0.07 |
| A20U U41G U54C | 0.12 |
| A20U A64C U66C | 0.11 |
| A20U U58C A65G | 0.08 |
| A20U U31C A64U A65G U74C | 0.15 |
| A20U U26C G53A C62U | 0.1 |
| A20U U26C C44U G52A A75U | 0.04 |
| A20U C29U A47G U51G C59U A77U | 0.21 |
| A20U U41A U54C | 0.13 |
| A20U C29U A65G | 0.11 |
| A20U A56G A57G A64G | 0.09 |
| A20U A47G U72C | 0.23 |
| A20U G52A U78G | 0.33 |
| A20U U25A A28U A35G C44U | 0.02 |
| A20U U51C U54C A75U | 0.3 |
| A20U C29U U41A | 0.21 |
| A20U U25C U26G A35G U72A U78C | 0.01 |
| A20U A56G A57G | 0.44 |

| Variant | self-cleavage |
| --- | --- |
| A20U G30A U31C | 0.1 |
| A20U G30U U41C U54G U67C | 0.11 |
| A20U U43C A56U | 0.17 |
| A20U U41C U49C U66C U69C | 0.21 |
| A20U G30A U43A A64U U76A U80C | 0.13 |
| A20U U26C A28U U67C A77G | 0.06 |
| A20U U31A C32U C39G | 0.34 |
| A20U U25C G30U U69G U76G | 0.04 |
| A20U U31C C32U U60C | 0.05 |
| A20U U25C A28G A65G | 0.3 |
| A20U U58A A77G | 0.11 |
| A20U G53A U54C | 0.2 |
| A20U U25A U69C U72C U80C | 0.06 |
| A20U U41C U48A U74C | 0.07 |
| A20U C27A C38G G46U U48C U72C | 0.03 |
| A20U A64G U72C | 0.28 |
| A20U U58G U60A A64G C71A | 0.03 |
| A20U U25C A35G U43C | 0.25 |
| A20U U43C U60C | 0.11 |
| A20U U51C U80C | 0.55 |
| A20U U41A U51C A65G | 0.1 |
| A20U U25C A28G U66G | 0.3 |
| A20U G36A A45U | 0.12 |
| A20U U26C C38G U41C A45C G61A | 0.06 |

| Variant | self-cleavage |
| --- | --- |
| A20U C23U U41C U48A U74C | 0.21 |
| A20U U25C U41A U72C | 0.06 |
| A20U U41C G63U | 0.28 |
| A20U U31C U43C A64G U72C | 0.15 |
| A20U U43C U67A | 0.95 |
| A20U U49C A56G A64U | 0.3 |
| A20U C23A U72A A75U U80A | 0.04 |
| A20U G30A A35G U41C | 0.06 |
| A20U G24A U25C U49C | 0.2 |
| A20U U26A C29U U41C U51A A57G | 0.06 |
| A20U G36C A57G C59U | 0.1 |
| A20U U25C U26A A45G U69C | 0.05 |
| A20U U41C A45C U72C | 0.08 |
| A20U U31A A64G U78C U80C | 0.05 |
| A20U G24A U43C A56G | 0.18 |
| A20U U51A A57G | 0.19 |
| A20U U60C A64C | 0.09 |
| A20U A47G U49C U54G A56U A75U | 0.11 |
| A20U C23A U31C | 0.17 |
| A20U A47G A56G | 0.19 |
| A20U U26C A28G C40A U58A U78C | 0.31 |
| A20U U25A A28G G63A A64G | 0.1 |
| A20U C29U U66C | 0.09 |
